The other results are listed elsewhere or left out.
Legend:
HSkMC = human skeletal muscle cells; assay: cytotoxicity call (relative viability < 0.9); settings: 10 µM
HepG2 = assay: cytotoxicity call (relative viability < 0.9); settings: 10 µM
S. aureus RN4220 = assay: growth inhibition call (relative growth <= 0.2); settings: 50 µM

Compound	cytotoxicity call (HSkMC)	cytotoxicity call (HepG2)	growth inhibition call (S. aureus RN4220)
C[C@H](CO)N1C[C@H](C)[C@H](CN(C)C(=O)Nc2ccc(C(F)(F)F)cc2)OCCCC[C@H](C)Oc2ccc(NS(=O)(=O)c3cn(C)cn3)cc2C1=O	inactive	inactive	inactive
C[C@@H]1CN([C@H](C)CO)C(=O)c2cccc(NC(=O)C3CCOCC3)c2O[C@H]1CN(C)Cc1ccncc1	inactive	inactive	inactive
O=C1O[C@H](c2ccccc2)[C@H](c2ccccc2)N2[C@H]1[C@@H](C(=O)N1CCCCCCC1)[C@]1(C(=O)Nc3ccc(C#CC4(O)CCCCCC4)cc31)[C@H]2c1ccc(O)cc1	inactive	inactive	inactive
NC(=O)c1cccc(S(N)(=O)=O)c1	inactive	inactive	inactive
C[C@@H]1CCCCO[C@@H](CN(C)C(=O)Cc2ccccc2)[C@H](C)CN([C@H](C)CO)C(=O)c2cc(NS(=O)(=O)c3cccs3)ccc2O1	inactive	inactive	inactive
Clc1nc(-c2ccccn2)nc2scc(-c3ccccc3)c12	inactive	inactive	inactive
C[C@H](CO)N1C[C@H](C)[C@@H](CN(C)C(=O)c2cnccn2)Oc2ncc(C#CCN(C)C)cc2C1=O	inactive	inactive	inactive
OCC(CO)N[C@H]1C[C@](O)(CO)[C@@H](O)[C@H](O)[C@H]1O	inactive	inactive	inactive
CN1C(=O)c2cc(NS(=O)(=O)CC(F)(F)F)ccc2OC[C@H]2O[C@@H](CC(=O)NCC3CCCCC3)CC[C@@H]21	inactive	inactive	inactive
O=C1N[C@@H](Cc2c[nH]c3ccccc23)COC(=O)[C@H](Cc2ccc(F)cc2)CCC=CC[C@@H]1CC(=O)N(CCO)Cc1ccccc1	inactive	inactive	inactive
C[C@@H]1CN([C@H](C)CO)C(=O)c2cc(NS(=O)(=O)c3ccc(F)cc3)ccc2O[C@@H](C)CCCCO[C@H]1CN(C)C(=O)C1CCCCC1	inactive	inactive	inactive
C[C@H](CO)N1C[C@H](C)[C@H](CN(C)CC2CCOCC2)Oc2cc(C#Cc3ccccc3F)ccc2S1(=O)=O	inactive	inactive	inactive
COc1ccc(CN(C)C[C@@H]2Oc3c(NC(=O)Nc4cccc5ccccc45)cccc3C(=O)N([C@H](C)CO)C[C@@H]2C)cc1	inactive	inactive	inactive
C[C@@H]1CN([C@@H](C)CO)C(=O)Cc2cc(NS(C)(=O)=O)ccc2O[C@H]1CN(C)Cc1ccc2c(c1)OCO2	inactive	inactive	inactive
COc1ccc(-c2cnc3c(c2)C(=O)N([C@H](C)CO)C[C@H](C)[C@H](CN(C)S(=O)(=O)c2cccc(OC)c2)O3)cc1	inactive	inactive	inactive
COCCNCc1ccc(-c2cc3nccc(Oc4ccc(NC(=S)NC(=O)Cc5ccc(F)cc5)cc4F)c3s2)nc1	active	active	inactive
CC(C)NC(=O)N(C)C[C@@H]1Oc2ccc(NS(=O)(=O)c3ccccc3)cc2CC(=O)N([C@H](C)CO)C[C@H]1C	inactive	inactive	inactive
C[C@@H]1CCCCO[C@@H](CN(C)C(=O)CCCN(C)C)[C@H](C)CN([C@@H](C)CO)C(=O)c2cc(NC(=O)Nc3cccc4ccccc34)ccc2O1	inactive	inactive	inactive
Cc1ccc(S(=O)(=O)Nc2ccc3c(c2)C(=O)N([C@H](C)CO)C[C@@H](C)[C@H](CN(C)C(=O)Nc2ccc(C(F)(F)F)cc2)OCCCC[C@@H](C)O3)cc1	inactive	inactive	inactive
C[C@@H]1CN([C@@H](C)CO)C(=O)c2cc(NS(=O)(=O)c3ccccc3)ccc2O[C@@H]1CN(C)Cc1ccc(Cl)c(Cl)c1	active	active	inactive
C[C@@H]1CN([C@H](C)CO)C(=O)c2cc(NS(C)(=O)=O)ccc2O[C@@H](C)CCCCO[C@H]1CN(C)S(=O)(=O)c1ccc(F)cc1	inactive	inactive	inactive
CCc1ccc(CCOc2ccc(CC3SC(=O)NC3=O)cc2)nc1.Cl (stereo not drawn)	inactive	inactive	inactive
O=C(C[C@H]1CC[C@@H]2[C@H](COC[C@H](O)CN2S(=O)(=O)c2ccc(Cl)cc2)O1)NCC1CCCCC1	inactive	inactive	active
C[C@H](CO)N1C[C@H](C)[C@H](CN(C)C(=O)Nc2ccc(C(F)(F)F)cc2)Oc2ccc(NS(=O)(=O)c3ccc(F)cc3)cc2C1=O	inactive	inactive	inactive
C[C@@H]1CN([C@H](C)CO)C(=O)c2cc(NC(=O)Nc3ccc4c(c3)OCO4)ccc2O[C@@H](C)CCCCO[C@@H]1CN(C)C(=O)CCC(F)(F)F	inactive	inactive	inactive
C[C@@H]1CCCCO[C@H](CN(C)Cc2ccc(C(=O)O)cc2)[C@@H](C)CN([C@@H](C)CO)C(=O)c2cc(NC(=O)Cc3ccccc3)ccc2O1	inactive	inactive	inactive
